# Source: a compilation of properties of binary mixtures (doi:10.1016/j.fluid.2019.112324)
# Some of these densities may be calculated back from excess volumes.
# Assay: xn = mol fraction of the nth substance listed
# Conditions: 100 kPa
smiles,measurement,setting,value
CCCCCC[n+]1ccn(C)c1.O=[N+]([O-])[O-] + CCCC(C)O,mass density,"293.15 K, x1 = 0.0814",856 kg/m3
same,mass density,"293.15 K, x1 = 0.1609",895.7 kg/m3
same,mass density,"293.15 K, x1 = 0.3491",971.2 kg/m3
same,mass density,"293.15 K, x1 = 0.4393",1000.4 kg/m3
same,mass density,"293.15 K, x1 = 0.5608",1034.5 kg/m3
same,mass density,"293.15 K, x1 = 0.6509",1056.6 kg/m3
same,mass density,"293.15 K, x1 = 0.9393",1111.5 kg/m3
same,mass density,"293.15 K, x1 = 1",1120.3 kg/m3
same,mass density,"298.15 K, x1 = 0.0814",851.8 kg/m3
same,mass density,"298.15 K, x1 = 0.2408",926.1 kg/m3
same,mass density,"298.15 K, x1 = 0.3491",966.8 kg/m3
same,mass density,"298.15 K, x1 = 0.4393",996.1 kg/m3
same,mass density,"298.15 K, x1 = 0.5608",1030.4 kg/m3
same,mass density,"298.15 K, x1 = 0.6509",1052.7 kg/m3
same,mass density,"298.15 K, x1 = 0.7401",1072.3 kg/m3
same,mass density,"298.15 K, x1 = 0.8508",1093.5 kg/m3
same,mass density,"298.15 K, x1 = 0.9393",1108.4 kg/m3
same,mass density,"298.15 K, x1 = 1",1117.5 kg/m3
same,mass density,"303.15 K, x1 = 0.1609",886.9 kg/m3
same,mass density,"303.15 K, x1 = 0.2408",921.6 kg/m3
same,mass density,"303.15 K, x1 = 0.3491",962.2 kg/m3
same,mass density,"303.15 K, x1 = 0.4393",991.7 kg/m3
same,mass density,"303.15 K, x1 = 0.5608",1026.1 kg/m3
same,mass density,"303.15 K, x1 = 0.6509",1048.5 kg/m3
same,mass density,"303.15 K, x1 = 0.8508",1089.7 kg/m3
same,mass density,"303.15 K, x1 = 0.9393",1104.9 kg/m3
same,mass density,"303.15 K, x1 = 1",1114.3 kg/m3
same,mass density,"308.15 K, x1 = 0.0814",843.2 kg/m3
same,mass density,"308.15 K, x1 = 0.1609",882.5 kg/m3
same,mass density,"308.15 K, x1 = 0.2408",917 kg/m3
same,mass density,"308.15 K, x1 = 0.3491",957.7 kg/m3
same,mass density,"308.15 K, x1 = 0.4393",987.2 kg/m3
same,mass density,"308.15 K, x1 = 0.5608",1021.8 kg/m3
same,mass density,"308.15 K, x1 = 0.6509",1044.3 kg/m3
same,mass density,"308.15 K, x1 = 0.8508",1086 kg/m3
same,mass density,"308.15 K, x1 = 0.9393",1101.4 kg/m3
same,mass density,"308.15 K, x1 = 1",1111.1 kg/m3
same,mass density,"313.15 K, x1 = 0.1609",877.6 kg/m3
same,mass density,"313.15 K, x1 = 0.2408",912.1 kg/m3
same,mass density,"313.15 K, x1 = 0.3491",952.9 kg/m3
same,mass density,"313.15 K, x1 = 0.4393",982.5 kg/m3
same,mass density,"313.15 K, x1 = 0.5608",1017.2 kg/m3
same,mass density,"313.15 K, x1 = 0.6509",1039.9 kg/m3
same,mass density,"313.15 K, x1 = 0.7401",1060 kg/m3
same,mass density,"313.15 K, x1 = 0.8508",1082.1 kg/m3
same,mass density,"313.15 K, x1 = 0.9393",1097.9 kg/m3
same,mass density,"313.15 K, x1 = 1",1107.8 kg/m3
same,mass density,"318.15 K, x1 = 0.0814",834 kg/m3
same,mass density,"318.15 K, x1 = 0.1609",872.8 kg/m3
same,mass density,"318.15 K, x1 = 0.2408",907.3 kg/m3
same,mass density,"318.15 K, x1 = 0.3491",948.2 kg/m3
same,mass density,"318.15 K, x1 = 0.4393",977.9 kg/m3
same,mass density,"318.15 K, x1 = 0.5608",1012.9 kg/m3
same,mass density,"318.15 K, x1 = 0.6509",1035.7 kg/m3
same,mass density,"318.15 K, x1 = 0.7401",1056 kg/m3
same,mass density,"318.15 K, x1 = 0.8508",1078.5 kg/m3
same,mass density,"318.15 K, x1 = 0.9393",1094.6 kg/m3
same,mass density,"318.15 K, x1 = 1",1104.7 kg/m3
same,mass density,"323.15 K, x1 = 0.1609",868 kg/m3
same,mass density,"323.15 K, x1 = 0.2408",902.5 kg/m3
same,mass density,"323.15 K, x1 = 0.3491",943.5 kg/m3
same,mass density,"323.15 K, x1 = 0.4393",973.3 kg/m3
same,mass density,"323.15 K, x1 = 0.5608",1008.5 kg/m3
same,mass density,"323.15 K, x1 = 0.7401",1052 kg/m3
same,mass density,"323.15 K, x1 = 0.8508",1074.8 kg/m3
same,mass density,"323.15 K, x1 = 0.9393",1091.2 kg/m3
CCCC(C)O (configuration not stated) + CCCCCC[n+]1ccn(C)c1.O=[N+]([O-])[O-],mass density,"293.15 K, x2 = 0",809.3 kg/m3
same,mass density,"298.15 K, x2 = 0",805.3 kg/m3
same,mass density,"303.15 K, x2 = 0",801.2 kg/m3
same,mass density,"308.15 K, x2 = 0",797 kg/m3
same,mass density,"313.15 K, x2 = 0",792.7 kg/m3
same,mass density,"318.15 K, x2 = 0",788.4 kg/m3
